Assay results reported in patent US20110207917A1 (PATRYS, published 2011).
One block for each binder: values may come before it.

How the values were obtained:
[1] = molecular target: T1, Apolipoprotein B100 (UniProt P04114 28-4563); experiment: ELISA on a panel of coated antigens (0.5 ug/well)
T1 construct: also called apoB100; ApoB100 protein

[2] = molecular target: T1, Apolipoprotein B100; experiment: ELISA on coated ApoB100 (10 ug/ml), anti-FLAG-HRP detection
T1 sequence (P04114 28-4563 limits assumed): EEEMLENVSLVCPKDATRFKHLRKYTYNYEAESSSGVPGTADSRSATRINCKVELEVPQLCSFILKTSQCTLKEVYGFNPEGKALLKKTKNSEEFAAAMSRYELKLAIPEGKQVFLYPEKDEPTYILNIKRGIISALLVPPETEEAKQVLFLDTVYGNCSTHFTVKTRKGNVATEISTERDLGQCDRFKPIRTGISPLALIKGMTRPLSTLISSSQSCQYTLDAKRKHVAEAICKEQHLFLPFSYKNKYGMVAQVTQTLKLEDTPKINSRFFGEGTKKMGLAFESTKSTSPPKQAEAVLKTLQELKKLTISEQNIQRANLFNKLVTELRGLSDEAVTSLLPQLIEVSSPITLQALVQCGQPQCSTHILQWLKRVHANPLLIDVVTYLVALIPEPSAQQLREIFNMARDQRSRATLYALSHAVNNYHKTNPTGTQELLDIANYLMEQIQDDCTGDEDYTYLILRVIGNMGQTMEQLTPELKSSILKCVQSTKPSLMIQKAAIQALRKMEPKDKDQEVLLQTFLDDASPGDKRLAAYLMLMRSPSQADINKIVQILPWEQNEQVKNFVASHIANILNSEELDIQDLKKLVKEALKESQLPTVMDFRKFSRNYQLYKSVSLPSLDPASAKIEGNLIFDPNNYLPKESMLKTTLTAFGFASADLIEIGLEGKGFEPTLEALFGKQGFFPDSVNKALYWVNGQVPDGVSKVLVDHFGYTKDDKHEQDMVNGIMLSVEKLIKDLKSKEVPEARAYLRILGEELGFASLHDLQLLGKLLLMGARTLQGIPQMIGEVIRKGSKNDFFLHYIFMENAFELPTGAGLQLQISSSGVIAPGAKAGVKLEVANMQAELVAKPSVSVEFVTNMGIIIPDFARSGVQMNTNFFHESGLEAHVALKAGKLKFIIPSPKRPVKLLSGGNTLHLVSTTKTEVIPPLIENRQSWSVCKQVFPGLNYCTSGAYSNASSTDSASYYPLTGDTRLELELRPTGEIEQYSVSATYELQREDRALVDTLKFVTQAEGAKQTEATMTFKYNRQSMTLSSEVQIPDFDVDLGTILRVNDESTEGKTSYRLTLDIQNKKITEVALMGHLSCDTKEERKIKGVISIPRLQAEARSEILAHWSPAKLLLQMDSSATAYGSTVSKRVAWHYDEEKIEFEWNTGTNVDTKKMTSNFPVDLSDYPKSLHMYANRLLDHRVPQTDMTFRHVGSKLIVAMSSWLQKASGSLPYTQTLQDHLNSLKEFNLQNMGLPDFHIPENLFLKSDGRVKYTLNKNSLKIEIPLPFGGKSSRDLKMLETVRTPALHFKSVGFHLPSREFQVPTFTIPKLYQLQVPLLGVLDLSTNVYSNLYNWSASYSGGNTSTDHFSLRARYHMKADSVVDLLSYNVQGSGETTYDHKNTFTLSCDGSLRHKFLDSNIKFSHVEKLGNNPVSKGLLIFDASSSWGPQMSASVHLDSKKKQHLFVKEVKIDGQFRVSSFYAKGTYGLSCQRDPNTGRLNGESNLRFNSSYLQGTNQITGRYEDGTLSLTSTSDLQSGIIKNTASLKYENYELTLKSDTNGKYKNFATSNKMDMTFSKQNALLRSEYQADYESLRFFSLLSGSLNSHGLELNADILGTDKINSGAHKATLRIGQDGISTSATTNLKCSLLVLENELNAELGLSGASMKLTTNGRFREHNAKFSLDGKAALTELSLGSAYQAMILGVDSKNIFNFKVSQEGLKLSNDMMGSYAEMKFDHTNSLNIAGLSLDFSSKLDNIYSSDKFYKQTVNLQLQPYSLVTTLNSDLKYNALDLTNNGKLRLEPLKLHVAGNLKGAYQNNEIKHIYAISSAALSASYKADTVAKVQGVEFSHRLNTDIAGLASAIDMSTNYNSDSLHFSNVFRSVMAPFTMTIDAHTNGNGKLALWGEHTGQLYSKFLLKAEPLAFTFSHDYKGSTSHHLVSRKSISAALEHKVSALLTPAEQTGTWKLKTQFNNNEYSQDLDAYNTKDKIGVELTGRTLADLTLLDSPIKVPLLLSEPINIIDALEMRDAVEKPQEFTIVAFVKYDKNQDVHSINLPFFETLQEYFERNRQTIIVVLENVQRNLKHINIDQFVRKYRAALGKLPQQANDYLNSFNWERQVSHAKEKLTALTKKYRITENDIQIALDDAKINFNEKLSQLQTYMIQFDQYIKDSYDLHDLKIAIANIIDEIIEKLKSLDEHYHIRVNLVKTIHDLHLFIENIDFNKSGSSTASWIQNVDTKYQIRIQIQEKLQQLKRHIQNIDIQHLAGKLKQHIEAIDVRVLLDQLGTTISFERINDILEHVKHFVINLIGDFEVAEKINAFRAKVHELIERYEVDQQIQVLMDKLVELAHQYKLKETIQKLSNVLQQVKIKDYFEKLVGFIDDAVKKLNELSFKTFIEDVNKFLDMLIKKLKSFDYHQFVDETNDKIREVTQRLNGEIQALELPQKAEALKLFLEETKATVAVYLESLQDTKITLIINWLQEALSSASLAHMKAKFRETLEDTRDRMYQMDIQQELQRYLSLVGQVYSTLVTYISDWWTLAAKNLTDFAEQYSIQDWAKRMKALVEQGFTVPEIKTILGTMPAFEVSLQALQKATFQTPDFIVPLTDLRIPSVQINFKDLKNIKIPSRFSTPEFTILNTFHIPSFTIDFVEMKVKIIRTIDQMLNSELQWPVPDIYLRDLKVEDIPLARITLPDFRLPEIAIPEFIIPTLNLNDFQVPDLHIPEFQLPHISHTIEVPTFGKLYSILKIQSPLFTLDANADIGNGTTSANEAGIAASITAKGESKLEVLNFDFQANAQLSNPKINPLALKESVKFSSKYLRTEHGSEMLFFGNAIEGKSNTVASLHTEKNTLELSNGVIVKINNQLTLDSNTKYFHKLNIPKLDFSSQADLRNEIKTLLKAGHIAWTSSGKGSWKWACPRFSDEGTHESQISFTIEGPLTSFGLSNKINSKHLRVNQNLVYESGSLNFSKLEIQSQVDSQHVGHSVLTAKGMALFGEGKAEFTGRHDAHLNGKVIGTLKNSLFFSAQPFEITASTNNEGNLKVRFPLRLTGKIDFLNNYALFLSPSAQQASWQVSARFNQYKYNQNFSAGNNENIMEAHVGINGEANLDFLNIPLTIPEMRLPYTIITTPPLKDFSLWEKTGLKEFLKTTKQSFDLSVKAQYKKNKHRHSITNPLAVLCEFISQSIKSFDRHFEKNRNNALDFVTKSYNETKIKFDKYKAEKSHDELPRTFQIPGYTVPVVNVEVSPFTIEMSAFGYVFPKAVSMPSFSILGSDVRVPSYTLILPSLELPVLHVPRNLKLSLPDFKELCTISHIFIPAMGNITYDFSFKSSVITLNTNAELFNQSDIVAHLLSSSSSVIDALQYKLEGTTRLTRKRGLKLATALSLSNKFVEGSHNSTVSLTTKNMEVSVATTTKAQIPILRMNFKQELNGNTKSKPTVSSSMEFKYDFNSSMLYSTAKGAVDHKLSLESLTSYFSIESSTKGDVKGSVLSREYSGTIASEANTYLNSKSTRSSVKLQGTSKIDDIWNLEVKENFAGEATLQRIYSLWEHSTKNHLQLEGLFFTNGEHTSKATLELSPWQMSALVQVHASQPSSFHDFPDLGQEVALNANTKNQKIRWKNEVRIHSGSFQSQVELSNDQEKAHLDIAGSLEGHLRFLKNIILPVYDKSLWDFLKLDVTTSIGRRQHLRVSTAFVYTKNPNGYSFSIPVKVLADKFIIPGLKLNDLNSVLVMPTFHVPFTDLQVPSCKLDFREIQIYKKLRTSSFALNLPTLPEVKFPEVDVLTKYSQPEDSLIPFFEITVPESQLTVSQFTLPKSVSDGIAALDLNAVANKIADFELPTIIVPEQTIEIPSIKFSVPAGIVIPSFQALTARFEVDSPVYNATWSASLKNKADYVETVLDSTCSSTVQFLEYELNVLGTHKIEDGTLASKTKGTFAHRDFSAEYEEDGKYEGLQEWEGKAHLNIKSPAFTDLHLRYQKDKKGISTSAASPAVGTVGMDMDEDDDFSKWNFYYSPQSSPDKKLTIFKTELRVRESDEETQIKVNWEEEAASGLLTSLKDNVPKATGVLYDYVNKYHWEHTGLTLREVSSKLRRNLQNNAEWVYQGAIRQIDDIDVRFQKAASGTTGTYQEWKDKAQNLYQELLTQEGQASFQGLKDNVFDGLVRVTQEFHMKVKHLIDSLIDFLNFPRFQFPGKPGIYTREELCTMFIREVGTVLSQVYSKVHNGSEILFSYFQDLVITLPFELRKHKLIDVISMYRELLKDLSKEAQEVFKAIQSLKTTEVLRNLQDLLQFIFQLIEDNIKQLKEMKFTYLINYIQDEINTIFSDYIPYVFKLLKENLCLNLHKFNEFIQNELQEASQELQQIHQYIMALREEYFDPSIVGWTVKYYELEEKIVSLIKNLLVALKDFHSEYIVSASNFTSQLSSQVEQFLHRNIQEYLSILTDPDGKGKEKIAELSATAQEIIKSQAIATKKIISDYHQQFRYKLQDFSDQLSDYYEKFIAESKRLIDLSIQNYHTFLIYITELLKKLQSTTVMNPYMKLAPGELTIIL

binding result [1]: binds
B1: SAM-6 1.1A scFv (scFv)
scFv: QVQLVESGGGVVQPGRSLRLSCAASGFTFSSYAMHWVRQAPGKGLEWVAVISYDGSNKYYADSVKGRFTISRDNSKNTLYLQMNSLRAEDTAVYYCARDRLAVAGRPFDYWGQGTLVTVSSGGGGS[left out - about 100 residues]
notes: scFv dimer (diabody) expressed in bacteria from the pPOW vector; also called scFv 1.1A; SAM-6 1.1A diabody; not shown: C-terminal FLAG tag (a His tag is implied by anti-HIS purification)

binding result [2]: binds
B2: SAM-6 2.7A scFv (scFv)
scFv: EVQLVESGGGVVQPGRSLRLSCAASGFTFSSYAMHWVRQAPGKGLEWVAVISYDGSNKYYADSVKGRFTISRDNSKNTLYLQMNSLRAEDTAVYYCARDRLAVAGRPFDYWGQGTLVTVSSGGGGS[left out - about 100 residues]
notes: also called SAM-6.2.7.ScFv; SM6 2.7A scFv; not shown: FLAG tag (and His tag, Ni-NTA purification)

binding result [1]: binds
B3: SAM-6 KTA scFv (scFv)
scFv: QVQLVESGGGVVQPGRSLRLSCAASGFTFSSYAMHWVRQAPGKGLEWVAVISYDGSNKYYADSVKGRFTISRDNSKNTLYLQMNSLRAEDTAVYYCARDRLAVAGKTFDYWGQGTLVTVSSGGGGS[left out - about 100 residues]
notes: scFv dimer, bacterial expression; also called scFv KTA (SAM-6 old); KTA diabody; not shown: FLAG tag (and His tag, anti-HIS purification)
